The values that follow come from the supplement of paper PMC6451100.

The other results are listed elsewhere or left out. Values come from read counts of a selection and are noisy.
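Further: S2-R+ lysate came from cells stably expressing FLAG-tagged AGO2, enrichment per 5N variant computed with FASTAptamer, reads lacking the constant 3′ segment discarded.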

The subject of the experiment is Drosophila AGO1 (endogenous, S2-R+ lysate). The experiment in a line: AGO1 loading enrichment factor (IP read count / input read count, not library-size normalised) (ratio); higher = more efficient loading into AGO1. The settings on record: randomized region: 5' 5N of miR-317 loop. The protocol:
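HISSA: 5'-phosphorylated, 32P-labelled 20-nt ssRNA oligos (miR-317 loop, first 5 nt randomized, constant 3' part TGAAATGCAAGCAAG as printed in methods; DNA letters for RNA) incubated 1 h at 25°C in S2-R+ cell lysate. Endogenous AGO1 was immunopurified with anti-AGO1 and bound oligos were sequenced after splinted ligation.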
As for GTAGTTGAAATGCAAGCAAG, the “AGO1 loading enrichment factor” value stood at 0.0976.

As for AATCATGAAATGCAAGCAAG, the “AGO1 loading enrichment factor” value is 0.217. Take GATGGTGAAATGCAAGCAAG: the “AGO1 loading enrichment factor” value was 0.535. Regarding ATGTATGAAATGCAAGCAAG, the “AGO1 loading enrichment factor” value came to 0.0838.

With GGGGCTGAAATGCAAGCAAG, the “AGO1 loading enrichment factor” value was found to be 0.209. The value for GAGTATGAAATGCAAGCAAG was 0.106; that for AACATTGAAATGCAAGCAAG was 0.11; that for TGGTATGAAATGCAAGCAAG was 0.128.

Consider GTCCTTGAAATGCAAGCAAG, for which the “AGO1 loading enrichment factor” value worked out at 0.0491. The value for TCAACTGAAATGCAAGCAAG was 0.329; that for TGGATTGAAATGCAAGCAAG was 0.122. The same measure for GGTACTGAAATGCAAGCAAG: 0.114; for GTATGTGAAATGCAAGCAAG: 0.0592. For GATCATGAAATGCAAGCAAG, the “AGO1 loading enrichment factor” value was determined as 0.229.

TGCGTTGAAATGCAAGCAAG: the “AGO1 loading enrichment factor” value came out at 0.0532. The same measure for GACTTTGAAATGCAAGCAAG: 1.02.

Consider TTCGCTGAAATGCAAGCAAG, for which the “AGO1 loading enrichment factor” value stood at 0.0254. The same measure for ATTGTTGAAATGCAAGCAAG: 0.313; for TAAACTGAAATGCAAGCAAG: 0.62; for GGCTTTGAAATGCAAGCAAG: 0.0676. The value for AGAATTGAAATGCAAGCAAG was 0.0994; that for CGCATTGAAATGCAAGCAAG was 0.0252; that for GAACATGAAATGCAAGCAAG was 0.0998.

Regarding AAGGGTGAAATGCAAGCAAG, the “AGO1 loading enrichment factor” value came to 0.453.

For the sequence AATAATGAAATGCAAGCAAG, the “AGO1 loading enrichment factor” value was 0.195. The value for ACTAATGAAATGCAAGCAAG was 0.2; that for TCAGCTGAAATGCAAGCAAG was 0.0994; that for TCAGTTGAAATGCAAGCAAG was 0.376. Regarding GCATATGAAATGCAAGCAAG, the “AGO1 loading enrichment factor” value was determined as 0.00913. The value for CAAGTTGAAATGCAAGCAAG was 0.0742. The value for GGAGTTGAAATGCAAGCAAG was 0.404. Turning to TATTGTGAAATGCAAGCAAG, the “AGO1 loading enrichment factor” value was 1.21. Regarding CATAATGAAATGCAAGCAAG, the “AGO1 loading enrichment factor” value stood at 0.113. The same measure for AAATCTGAAATGCAAGCAAG: 0.122.

In the case of GTTCGTGAAATGCAAGCAAG, the “AGO1 loading enrichment factor” value amounted to 0.0521.

GGGTCTGAAATGCAAGCAAG: the “AGO1 loading enrichment factor” value turned out to be 0.348. The value for GAGTCTGAAATGCAAGCAAG was 0.18; that for GGTGCTGAAATGCAAGCAAG was 0.0776; that for AGTTGTGAAATGCAAGCAAG was 0.0858. For the sequence AAAATTGAAATGCAAGCAAG, the “AGO1 loading enrichment factor” value came out at 0.153. The same measure for TACGCTGAAATGCAAGCAAG: 0.356.

GGTCGTGAAATGCAAGCAAG: the “AGO1 loading enrichment factor” value is 0.319.

Regarding CCTAATGAAATGCAAGCAAG, the “AGO1 loading enrichment factor” value was 0.0321.

In the case of ACCTCTGAAATGCAAGCAAG, the “AGO1 loading enrichment factor” value came to 0.176. The same measure for GACGTTGAAATGCAAGCAAG: 13.3. With GACATTGAAATGCAAGCAAG, the “AGO1 loading enrichment factor” value worked out at 3.29. The same measure for GAGGCTGAAATGCAAGCAAG: 0.0578; for ACATCTGAAATGCAAGCAAG: 0.137. The value for AAACCTGAAATGCAAGCAAG was 0.494.

Regarding AACTCTGAAATGCAAGCAAG, the “AGO1 loading enrichment factor” value was 0.267. For the sequence ACCCCTGAAATGCAAGCAAG, the “AGO1 loading enrichment factor” value was 0.0502. In the case of AAGGATGAAATGCAAGCAAG, the “AGO1 loading enrichment factor” value was found to be 0.271.

Turning to GGGGGTGAAATGCAAGCAAG, the “AGO1 loading enrichment factor” value is 3. On to TTCAATGAAATGCAAGCAAG, for which the “AGO1 loading enrichment factor” value is 1.06.

On to TGTGCTGAAATGCAAGCAAG, for which the “AGO1 loading enrichment factor” value was found to be 0.0841. Consider GCTTTTGAAATGCAAGCAAG, for which the “AGO1 loading enrichment factor” value came out at 0.0318.

For the sequence TTGTTTGAAATGCAAGCAAG, the “AGO1 loading enrichment factor” value is 0.172. The same measure for CGGACTGAAATGCAAGCAAG: 0.123.

ATCTATGAAATGCAAGCAAG: the “AGO1 loading enrichment factor” value turned out to be 0.152. The same measure for GCGCGTGAAATGCAAGCAAG: 0.642. As to CCACCTGAAATGCAAGCAAG, the “AGO1 loading enrichment factor” value came to 0.247. For TCAAGTGAAATGCAAGCAAG, the “AGO1 loading enrichment factor” value came to 0.261. The value for CCTGTTGAAATGCAAGCAAG was 0.0193; that for CATTGTGAAATGCAAGCAAG was 0.0401. The value for GAAATTGAAATGCAAGCAAG was 0.125; that for GGCGATGAAATGCAAGCAAG was 3.21; that for AGAACTGAAATGCAAGCAAG was 0.0996. On to GATTGTGAAATGCAAGCAAG, for which the “AGO1 loading enrichment factor” value was determined as 0.0417. In the case of CTGCCTGAAATGCAAGCAAG, the “AGO1 loading enrichment factor” value came to 0.122.

Take GGTCATGAAATGCAAGCAAG: the “AGO1 loading enrichment factor” value was determined as 0.137.
